Data from the supplement of paper PMC3334620.
In all, about 33,000 sequences were measured (“E-score (-0.5 to 0.5)”: median about -0.054, highest 2% from about 0.39 on). The list shows a part of the results.

target: Ylr278c (UniProt Q05854); assay: PBM E-score (8-mer binding enrichment) (E-score (-0.5 to 0.5)); higher = stronger / more preferred TF binding; most listed sequences are background and not binding sites; conditions: protein concentration: 200 nM; construct: GST-DNA-binding domain
Method: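 Universal 'all 10-mer' protein binding microarrays (Agilent AMADID 015681) probed with GST-tagged S. cerevisiae TFs (full-length or DBD) made by in vitro transcription/translation (PURExpress), about 100-200 nM. Bound TF was detected with fluorescent anti-GST. Each ungapped 8-mer (which stands for itself and its reverse complement) is scored by the PBM enrichment score (E-score), a modified Wilcoxon-Mann-Whitney statistic from -0.5 to +0.5, computed with the Universal PBM Analysis Suite. Scale: above 0.35 generally sequence-specific binding.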

Row | Sequence | PBM E-score
1 | CGTAGGGA | -0.178
2 | CAATGAAA | -0.235
3 | ACCATTCC | 0.146
4 | ACGGACAG | 0.043
5 | AGCAAGGG | -0.0657
6 | GAGCCGGA | 0.407
7 | AAAGAACG | 0.0048
8 | CTTTGTAA | -0.0847
9 | AACGTACC | -0.117
10 | CCCTGTCG | -0.0722
11 | AGCCTAAA | -0.138
12 | ATCAGGTA | -0.101
13 | AAGTGGAC | -0.113
14 | ATAGTGAG | -0.229
15 | CACATGCA | -0.182
16 | ACATGCGC | 0.0214
17 | AAGGGGAC | -0.105
18 | TGCTATAA | -0.134
19 | AATAAATT | 0.04
20 | CACCATGG | -0.32
21 | GTAATCTA | -0.052
22 | ACGCGCTC | -0.0144
23 | ATCTACAA | -0.172
24 | AAAAGATC | -0.0655
25 | TGAAGTAA | -0.132

Row | Sequence | PBM E-score
26 | ACTTAACC | -0.0501
27 | GAGCTCCC | 0.00449
28 | ATCAGGAG | -0.02
29 | AGCGCCAC | -0.108
30 | AGCTTCAC | -0.216
31 | CTTATTCC | 0.249
32 | CGGCGACC | 0.306
33 | TACCTGGA | -0.116
34 | ATACAGAC | -0.0717
35 | ATAGAGAC | -0.248
36 | GTAGATCA | 0.0365
37 | GAGATAAC | 0.0356
38 | GTAAGTAA | -0.0435
39 | CGAGTAGC | 0.0771
40 | GTAGGCTA | -0.151
41 | ATACAACA | -0.152
42 | ACAAACGG | 0.203
43 | AGAGCTCC | 0.193
44 | ACTCACTA | -0.144
45 | ATCGGCAG | 0.213
46 | CTGTGAAC | -0.198
47 | CTTTAGCC | 0.15
48 | GGCCCCTA | -0.0509
49 | ATAGTGGA | -0.04
50 | CATCGTGA | -0.119

Row | Sequence | PBM E-score
51 | CGTTCGTC | 0.0351
52 | GACAACGA | 0.00479
53 | ATCAATAC | -0.232
54 | GAGATGCC | 0.0775
55 | CCCTTATC | -0.0989
56 | TAGGTCGA | -0.114
57 | AAGGACGC | -0.0694
58 | ATGAAAAA | 0.0858
59 | AGTTTCAG | 0.0252
60 | ACCGGTCT | 0.146
61 | ACGGCTAC | 0.0549
62 | CAGTTAAG | -0.119
63 | CCGGACCC | 0.391
64 | AAGCGCGT | -0.064
65 | AAGAGTAG | 0.0448
66 | ACATTCGC | 0.0596
67 | ACCAACGT | -0.215
68 | CGTGAAGC | -0.0642
69 | TGAGGAAA | -0.0933
70 | AAGTGGGT | 0.00453
71 | ATAGGGAA | -0.0367
72 | GGCACTCA | -0.315
73 | ATGGCTCG | -0.116
74 | CAGCATGC | -0.042
75 | CGACAAGA | 0.0177

Row | Sequence | PBM E-score
76 | CTCACTCA | -0.0527
77 | TGCGCGCA | 0.204
78 | ATCCTTCC | -0.124
79 | AGAACTAC | -0.0654
80 | CACCGCTG | -0.0372
81 | GAAGCCAA | 0.0199
82 | CGCAAAGA | -0.0298
83 | ATTAATGC | 0.107
84 | GAATGCAC | 0.0728
85 | ACCCGCTC | -0.0324
86 | ATGGATCG | 0.166
87 | GCTGCTCA | -0.347
88 | CACAAGAG | -0.0341
89 | CTCGACGC | 0.0704
90 | TAAGATTA | -0.125
91 | CCAGATGG | -0.0985
92 | CCATCTAC | -0.0779
93 | CTGTACAC | -0.176
94 | ACGTTCAC | -0.102
95 | ACTATAGC | -0.0594
96 | CGGAAATC | 0.41
97 | CATAGAGA | -0.198
98 | CCGGACAG | 0.357
99 | ACCACCGC | 0.0504
100 | CAATTACA | 0.0794

Row | Sequence | PBM E-score
101 | AATGGCAA | -0.195
102 | AGACGCTA | -0.146
103 | CCCGCCTC | 0.147
104 | CCCGGAAG | 0.39
105 | AGGTCACG | -0.111
106 | GGTAGGAC | -0.00594
107 | ATATTAGC | -0.0489
108 | ATAGCGGC | 0.147
109 | CCTAGCAC | -0.112
110 | AATGACAC | -0.186
111 | CGGTCATA | 0.159
112 | AAGCACGT | -0.209
113 | TAGCAAGA | -0.23
114 | GCTACTAC | 0.126
115 | ATTTGGAC | 0.0193
116 | GCAATCAA | -0.015
117 | CCGCGACA | 0.113
118 | ATTACCCC | 0.229
119 | TACAATGA | -0.269
120 | GGTGAGGA | 0.0213
121 | CTAAATAA | -0.202
122 | AATCGCCC | -0.00431
123 | AGGATCAT | -0.258
124 | GCGGGGTA | 0.323
125 | AGCCCGGG | 0.328

Row | Sequence | PBM E-score
126 | AATCCAGA | -0.0484
127 | ATGCGGCG | 0.244
128 | GTCCTGAA | -0.153
129 | AACTCGTG | -0.105
130 | AAACTGTT | -0.0687
131 | AACATTCT | -0.176
132 | CTGGACAC | -0.191
133 | CAGAAGAA | -0.127
134 | TCGGACGA | 0.271
135 | ACTAAAAT | -0.0501
136 | AGCAACTG | -0.0877
137 | CTATTCCA | 0.02
138 | GGACCCAA | 0.0838
139 | GCTATTCA | -0.0562
140 | TAACCGTA | -0.0936
141 | ATCCAGGG | -0.202
142 | AGTCCGGG | 0.44
143 | CGTCGCCA | -0.27
144 | CTGCCTAC | -0.116
145 | GCCAGCTA | -0.18
146 | CGGGTGAA | 0.159
147 | GGCCGGAC | 0.419
148 | CCCGCGCG | 0.326
149 | GAGAGAAA | -0.0494
150 | GACTTTGC | 0.00324

Row | Sequence | PBM E-score
151 | AGTATCTC | 0.114
152 | AAAACATA | 0.0523
153 | GACGGATC | 0.132
154 | AATACGTG | -0.209
155 | ATTGATTG | 0.106
156 | GCTTTAAC | -0.215
157 | ATAAATTG | -0.00791
158 | CCATTCCC | 0.115
159 | CGTGAACG | -0.0842
160 | CTAGGATA | -0.15
161 | ACGCTATG | -0.0961
162 | CGTTCACC | 0.0466
163 | AAAACGTA | -0.157
164 | GCGATCAC | 0.0148
165 | AAAAATAT | 0.0546
166 | GGCTCAAA | 0.0317
167 | CCAACCTC | 0.0644
168 | ACTCGCCC | 0.0369
169 | AAGAGCTA | -0.167
170 | CTTGGCGA | -0.203
171 | AGACCAAC | -0.159
172 | CAAGGATG | -0.287
